For the assay, the system named is RPE1. In words: nucleolar normality score relative to DMSO (fraction of DMSO control); RPE1 is a non-cancer human cell line; higher = more normal nucleoli (less nucleolar stress). To be noted: 24 h.

Structures can show the parent of a compound that is named as a salt. The list shows a part of the results.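 The calls were made as follows: active = more than 2 SD below the DMSO mean: under 0.85 at 10 µM or 0.885 at 1 µM; inactive = the rest.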 Most values come without repeats; read them as rough. Where a SMILES comes first, the peptide text is derived from it. [ ]: non-standard residue; d: D form.
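Also: fixed cells immunolabelled for nucleolin and UBF, 40 image fields per well in 384-well plates, per-cell score = nucleolin nucleolar/nucleoplasm intensity ratio divided by the matching UBF ratio.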

Consider `CC(=NNC(=S)N1CCC1)c1ccccn1`, for which the nucleolar normality score is active: 0.533 (1 µM) and active: 0.615 (10 µM).

As to `CN1C(=O)C(Cc2c[nH]c3ccccc23)NC1=S` (centres undefined) [Necrostatin-1], the nucleolar normality score is inactive: 1.05 (1 µM) and inactive: 1.01 (10 µM).

Take `Nc1nc(OCC2CCCCC2)c2[nH]cnc2n1`: the nucleolar normality score runs as follows: (1 µM) inactive: 1; (10 µM) inactive: 0.987.

On to `CCn1c(-c2nonc2N)nc2c(C#CC(C)(C)O)ncc(OC[C@H]3CCCNC3)c21`, for which the nucleolar normality score (1 µM) was inactive: 0.956 and the nucleolar normality score (10 µM) was inactive: 0.996.

Take `Cc1cnc(-c2ccccc2C(C)C)nc1NCc1ccc(-n2ccnn2)cc1`: the nucleolar normality score is, setting by setting: (1 µM) inactive: 1.04; (10 µM) inactive: 1.06.

As for `Nc1ccc(-c2ccc3ncc4ccc(=O)n(-c5cccc(C(F)(F)F)c5)c4c3c2)cn1` [Torin 2], the nucleolar normality score reads like this: (1 µM) active: 0.596; (10 µM) active: 0.55.

On to `COc1cc2nc(N3CCCC3)nc(NCCCCCN3CCCC3)c2cc1OC`, for which the nucleolar normality score reads like this: (1 µM) inactive: 0.893; (10 µM) inactive: 0.875.

Take `C#Cc1cccc(Nc2ncnc3cc(OCCOC)c(OCCO)cc23)c1`: the nucleolar normality score is inactive: 0.958 (1 µM) and inactive: 1.02 (10 µM).

Turning to `Cn1cnc2c(F)c(Nc3ccc(Br)cc3F)c(C(=O)NOCCO)cc21`, the nucleolar normality score (1 µM) is inactive: 1.08 and the nucleolar normality score (10 µM) was inactive: 0.926.

For the compound `CN1CCC(Nc2nc(Nc3ccc(Oc4ccccc4)cc3)c3c(=O)[nH]cc(Br)c3n2)CC1`, the nucleolar normality score is inactive: 0.968 (1 µM) and inactive: 0.9 (10 µM).

On to `CC(=O)O[C@H]1C(=O)[C@@]2(C)[C@H]([C@H](OC(=O)c3ccccc3)[C@]3(O)C[C@H](OC(=O)[C@H](O)[C@@H](NC(=O)c4ccccc4)c4ccccc4)C(C)=C1C3(C)C)[C@]1(OC(C)=O)CO[C@@H]1C[C@@H]2O` [Paclitaxel], for which the nucleolar normality score was active: 0.725 (1 µM) and active: 0.76 (10 µM).

For the compound `COc1cccc2c1C(=O)c1c(O)c3c(c(O)c1C2=O)C[C@@](O)(C(=O)CO)C[C@@H]3O[C@H]1C[C@H](N)[C@@H](O)[C@H](C)O1` [Epirubicin HCl], the nucleolar normality score by setting is: (1 µM) inactive: 0.905; (10 µM) active: 0.508.

As to `C=C(C)[C@@H]1CC[C@]2(CO)CC[C@]3(C)[C@H](CC[C@@H]4[C@@]5(C)CC[C@H](O)C(C)(C)[C@@H]5CC[C@]43C)[C@@H]12` [Betulin], the nucleolar normality score was inactive: 1.02 (1 µM) and inactive: 0.899 (10 µM).

Consider `O=[N+]([O-])c1ccc(Nc2ccccc2-c2ccccc2)c2nonc12`, for which the nucleolar normality score (1 µM) is inactive: 1.04 and the nucleolar normality score (10 µM) was inactive: 1.05.

With `CC1=C(/C=C/C(C)=C/C=C/C(C)=C/CO)C(C)(C)CCC1` [Vitamin A], the nucleolar normality score was inactive: 1 (1 µM) and inactive: 1.02 (10 µM).

Turning to `OCCn1cc(-c2cnc3nnn(Cc4ccc5ncccc5c4)c3n2)cn1`, the nucleolar normality score is inactive: 1.03 (1 µM) and inactive: 1.11 (10 µM).

As for `Cc1ccc(-n2nc(C(C)(C)C)cc2NC(=O)NCc2cc(F)ccc2Oc2ccc3c(cnn3CCO)c2)cc1` [Pexmetinib (ARRY-614)], the nucleolar normality score by setting is: (1 µM) inactive: 0.938; (10 µM) inactive: 1.03.

For `Oc1ccc(-c2nc(-c3ccc(F)cc3)c(-c3ccncc3)[nH]2)cc1`, the nucleolar normality score is inactive: 0.987 (1 µM) and inactive: 1.05 (10 µM).

With `O=C(O)c1cc(=O)[nH]c(=O)[nH]1` [Orotic acid (6-Carboxyuracil)], the nucleolar normality score runs as follows: (1 µM) inactive: 1.02; (10 µM) inactive: 0.916.

`C[C@@H]1O[C@@H](O[C@H]2[C@H](OC(=O)[C@]34CCC(C)(C)C[C@H]3C3=CC[C@@H]5[C@@]6(C)C[C@H](O)[C@@H]7O[C@@H]8O[C@H](CO)[C@@H](O)[C@H](O)[C@H]8O[C@@H]8OC[C@H](O)[C@H](O)[C@H]8OC(=O)CC(C)(O)CC(=O)OC[C@@]7(C)[C@@H]6CC[C@@]5(C)[C@]3(C)CC4)OC[C@H](O)[C@@H]2O)[C@H](O)[C@H](O[C@@H]2OC[C@@H](O)[C@H](O)[C@H]2O)[C@H]1O` (some centres undefined) [Tubeimoside I]: the nucleolar normality score is inactive: 1 (1 µM) and inactive: 0.932 (10 µM).

Consider `Cc1ccccc1C(C(=O)NC1CCCCC1)N(C(=O)Cn1ccnc1C)c1cccc(F)c1` (centres undefined), for which the nucleolar normality score by setting is: (1 µM) inactive: 0.933; (10 µM) inactive: 1.03.

Turning to `CONC(=O)c1ccccc1Nc1cc(Nc2cc(C)nn2C(C)C)ncc1Cl`, the nucleolar normality score by setting is: (1 µM) inactive: 0.997; (10 µM) inactive: 1.04.

With `O=C(O)C(Cc1ccccc1[N+](=O)[O-])=NNc1nc(-c2ccc(Cl)c(Cl)c2)cs1`, the nucleolar normality score runs as follows: (1 µM) inactive: 1.03; (10 µM) inactive: 0.952.

Take `CCn1cc(C(=O)O)c(=O)c2cc(F)c(N3CCNCC3)nc21` [Enoxacin Sesquihydrate]: the nucleolar normality score was inactive: 1.04 (1 µM) and inactive: 1.02 (10 µM).

In the case of `COCCOc1nc(-c2ccc(Cl)c(Cl)c2)n(-c2ccc(NC(=O)CCl)cc2)n1` [MI-2 (MALT1 inhibitor)], the nucleolar normality score is inactive: 1.11 (1 µM) and inactive: 1.09 (10 µM).

`Nc1ccc(S(=O)(=O)NC(=O)c2ccccc2)cc1` [Sulfabenzamide]: the nucleolar normality score reads like this: (1 µM) inactive: 1.03; (10 µM) inactive: 1.08.

In the case of `C[C@@H](O)[C@H]1C(=O)N2C(C(=O)O)=C(S[C@@H]3CN[C@H](C(=O)Nc4cccc(C(=O)O)c4)C3)[C@H](C)[C@H]12` [Ertapenem sodium], the nucleolar normality score is inactive: 1.08 (1 µM) and inactive: 1 (10 µM).

On to `N=C(N)NCCC[C@@H](N)C(=O)N[C@H](CCCNC(=N)N)C(=O)N[C@H](CCCNC(=N)N)C(=O)N[C@H](CCCNC(=N)N)C(=O)N[C@H](CCCNC(=N)N)C(=O)N[C@H](CCCNC(=N)N)C(=O)N[C@H](CCCNC(=N)N)C(=O)N[C@H](CCCNC(=N)N)C(=O)N[C@H](CCCNC(=N)N)C(=O)N[C@H](CS)C(=O)N[C@H](CCC(N)=O)C(=O)N[C@H](CS)C(=O)N[C@H](CCCNC(=N)N)C(=O)N[C@H](CCCNC(=N)N)C(=O)N[C@H](CCCCN)C(=O)N[C@H](CC(N)=O)C(=O)O` (H-[dR][dR][dR][dR][dR][dR][dR][dR][dR][dC][dQ][dC][dR][dR][dK][dN]-OH), for which the nucleolar normality score is, setting by setting: (1 µM) inactive: 1.05; (10 µM) inactive: 1.09.

As to `O=C(COc1cccc2c(=O)[nH]ccc12)c1ccccc1`, the nucleolar normality score by setting is: (1 µM) inactive: 1; (10 µM) inactive: 1.03.

Regarding `CC(C)OC(=O)C(C(=O)OC(C)C)=C1SC=CS1` [Malotilate], the nucleolar normality score runs as follows: (1 µM) inactive: 0.949; (10 µM) inactive: 1.06.

In the case of `CCS(=O)(=O)Nc1ccc(Oc2ccc(F)cc2F)c(-c2cn(C)c(=O)c3[nH]ccc23)c1` [Mivebresib(ABBV-075)], the nucleolar normality score (1 µM) was inactive: 0.981 and the nucleolar normality score (10 µM) was inactive: 0.887.

As for `C=C(C)[C@@H]1CC[C@]2(C(=O)O)CC[C@]3(C)[C@H](CC[C@@H]4[C@@]5(C)CC[C@H](O)C(C)(C)[C@@H]5CC[C@]43C)[C@@H]12` [Betulinic acid], the nucleolar normality score reads like this: (1 µM) inactive: 0.917; (10 µM) active: 0.684.

Turning to `O=C(NOCC1CC1)c1ccc(F)c(F)c1Nc1ccc(I)cc1Cl`, the nucleolar normality score reads like this: (1 µM) inactive: 1.03; (10 µM) inactive: 1.09.

Consider `Nc1nc(F)nc2c1ncn2[C@@H]1O[C@H](COP(=O)(O)O)[C@@H](O)[C@@H]1O` [Fludarabine Phosphate], for which the nucleolar normality score was inactive: 1.07 (1 µM) and inactive: 1.08 (10 µM).

With `Cc1ccc2c(c1)C(=O)C1(O)CCN(c3ccccc3)C1=N2` (single isomer, unassigned; (-)) [(-)-Blebbistatin], the nucleolar normality score (1 µM) was inactive: 1.01 and the nucleolar normality score (10 µM) was inactive: 0.873.

In the case of `CS(=O)(=O)c1ccc(C(=O)Nc2ccc(Cl)c(-c3ccccn3)c2)c(Cl)c1` [Vismodegib (GDC-0449)], the nucleolar normality score is inactive: 0.928 (1 µM) and inactive: 1.04 (10 µM).

With `O=C1C(c2c(O)[nH]c3ccccc23)=Nc2ccccc21` [Indirubin], the nucleolar normality score (1 µM) was inactive: 0.983 and the nucleolar normality score (10 µM) is active: 0.844.

For the compound `CNc1nc(-c2ccc3c(N)n[nH]c3c2)cc(N2C[C@@H](C(=O)NC3CCCCC3)CC[C@H]2C)n1`, the nucleolar normality score is, setting by setting: (1 µM) inactive: 1.04; (10 µM) active: 0.84.

As to `COc1ccc(-c2coc3cc(O)ccc3c2=O)cc1` [Formononetin], the nucleolar normality score by setting is: (1 µM) inactive: 0.96; (10 µM) inactive: 0.853.

Take `O=C(Nc1cc(C(F)(F)F)cc(C(F)(F)F)c1)c1cc(Cl)ccc1O`: the nucleolar normality score is active: 0.488 (1 µM) and active: 0.471 (10 µM).

For `NC(=O)N1CCC(CC(=O)N2CCC([C@H]3c4ncc(Br)cc4CCc4cc(Cl)cc(Br)c43)CC2)CC1` [Lonafarnib], the nucleolar normality score is, setting by setting: (1 µM) inactive: 1.08; (10 µM) inactive: 0.967.

With `O=C1C[C@@H](c2ccc(O[C@@H]3O[C@H](CO)[C@@H](O)[C@H](O)[C@H]3O)cc2)Oc2cc(O)ccc21` [Liquiritin], the nucleolar normality score was inactive: 1.05 (1 µM) and inactive: 0.929 (10 µM).

In the case of `Cc1ccc(S(=O)(=O)C=CC#N)cc1`, the nucleolar normality score by setting is: (1 µM) inactive: 1.01; (10 µM) inactive: 0.895.

As to `CC(C)Nc1cc(-c2c[nH]c(C(=O)N[C@H](CO)c3cccc(Cl)c3)c2)c(Cl)cn1`, the nucleolar normality score reads like this: (1 µM) inactive: 0.923; (10 µM) inactive: 0.992.

In the case of `O=C(c1cc(Cc2n[nH]c(=O)c3ccccc23)ccc1F)N1CCN(C(=O)C2CC2)CC1`, the nucleolar normality score is inactive: 0.97 (1 µM) and inactive: 1.07 (10 µM).

As for `CC(C)(C)C(=O)Nc1ccc2c(c1)C(=O)C(=O)c1ccccc1-2`, the nucleolar normality score is inactive: 1.03 (1 µM) and inactive: 1.08 (10 µM).

As for `N=C1NC(=O)/C(=C/c2ccc(O)cc2)S1` [Mirin], the nucleolar normality score runs as follows: (1 µM) inactive: 0.959; (10 µM) inactive: 0.959.

Turning to `CCCc1cc(C)[nH]c(=O)c1CNC(=O)c1cc(-c2ccc(N3CCN(C(C)C)CC3)nc2)cc2c1cnn2C(C)C`, the nucleolar normality score (1 µM) is inactive: 0.964 and the nucleolar normality score (10 µM) is inactive: 0.993.

For the compound `COc1c(C)c(C(=O)c2ccc(N)c(C(=O)O)c2)n2ccccc12`, the nucleolar normality score runs as follows: (1 µM) inactive: 1.08; (10 µM) inactive: 1.08.

Regarding `CN[C@@H](C)C(=O)N[C@H](C(=O)N1CCC[C@H]1c1nc(C(=O)c2ccc(F)cc2)cs1)C1CCCCC1`, the nucleolar normality score is, setting by setting: (1 µM) inactive: 1.05; (10 µM) inactive: 1.05.

As to `O=C1C[C@@H](c2ccccc2)Oc2cc(O)cc(O)c21` [Pinocembrin], the nucleolar normality score is inactive: 1.07 (1 µM) and inactive: 1.06 (10 µM).

For the compound `CC(C)C[C@H](NP(=O)(O)O[C@@H]1O[C@@H](C)[C@H](O)[C@@H](O)[C@H]1O)C(=O)N[C@@H](Cc1c[nH]c2ccccc12)C(=O)O` [Phosphoramidon Disodium Salt], the nucleolar normality score is, setting by setting: (1 µM) inactive: 0.905; (10 µM) inactive: 0.994.

Values taken from the supplement of paper PMC10723795.
